Reference: PMC6212790
Some of the results follow. At the low end of the ranking the order means little.

The sequences below were run against T1, GST-Rok-C97-191 (UniProt O34857) (assay: protein binding microarray). Settings: Rok is a gene silencer of Bacillus subtilis; high values mean tight binding; most listed sequences are background and not binding sites; double strand, one strand shown.
T1 sequence: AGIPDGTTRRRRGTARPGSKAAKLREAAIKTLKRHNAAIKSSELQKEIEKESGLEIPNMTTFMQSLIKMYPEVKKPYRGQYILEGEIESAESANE
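Also: rank score from −0.5 (least bound) to 0.5 (best bound).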

Sequence | binding signal [E-score]
ACAACGAA | 0.151
CCTCAACA | -0.0481
CTCTGTAC | -0.152
TTCACAAA | 0.0906
GCTCTACA | -0.102
CTTATCGA | 0.063
ATTTCATA | 0.241
TCATAGGA | 0.154
GATCTGCA | 0.045
ACGGCCAG | -0.104
CCAGGGGG | -0.283
AAAGCCAT | -0.088
ACGATTGC | -0.048
CGGAAGTA | 0.125
CAGATCCG | -0.0874
AGCCGTAA | -0.0793
AATCTGCT | -0.112
CCCCTGTA | -0.123
ACTTGGCA | -0.102
AAGGCGGT | -0.0701
CCTTGAGC | -0.154
CGCAGACC | -0.165
AGTCGTTC | -0.195
GCACTGAC | 0.0455
GTTACTTA | 0.188

Sequence | binding signal [E-score]
CGAGAGTC | -0.158
ATTCTCGC | -0.0481
ACGTACAT | 0.258
ATAAATGG | -0.0116
AGGTGAGC | -0.0241
AAGGAATC | -0.0107
CCCTTGAA | -0.118
ATGGCCCG | -0.0979
AGCGTCTG | 0.0658
CTGGCGGC | -0.267
CTTAAGTC | -0.204
CTGATGGC | -0.0245
ATTGATGA | 0.0215
AAGAACTT | -0.176
CGATCTGA | 0.029
ACAAAAGA | -0.0647
CGTTCACA | -0.106
GAGCAGCA | -0.0392
GGGAACAA | -0.0777
AGTTTTAT | 0.291
GTCACAGA | -0.138
CCTCGACC | -0.239
CTACACAC | 0.0653
TAAGTCGA | 0.0787
AATTGGGA | 0.0388

Sequence | binding signal [E-score]
ATCGGCCG | -0.0821
GAGGGAAC | -0.0649
AGACTGTA | 0.163
ATGCCCCA | -0.222
AGTCGAAC | -0.0233
CTGTAGGC | -0.0325
ATGGGAGA | 0.0644
TACTCGCA | -0.00444
AGCTTAGC | 0.0963
AGCATCAA | -0.0279
ACTATCAT | 0.289
CCAGATAA | -0.0149
TATAAGAA | 0.165
AGCATCAG | -0.0279
CATCATGG | 0.00052
TCAAAGAA | 0.103
AAACACGA | 0.046
GGTCTTAC | -0.141
CAGCTCGC | -0.253
GACACACC | -0.203
GCTTTACC | -0.0281
AGCAGAAG | -0.0574
TGCCAGCA | 0.171
AGCCATGC | -0.149
CGGCCGTA | 0.0354

Sequence | binding signal [E-score]
ACAGAGTG | -0.0464
CGGGCTTC | -0.0782
CGGGGAAC | -0.157
GGGCCCGA | -0.0395
ATTCCCGA | -0.00573
ATAAATTA | 0.259
GACGCCTC | -0.305
GCTGTGTA | 0.121
ACCTGATG | 0.117
CAACAGCG | -0.182
CGTTGATC | -0.0737
CATACTAA | 0.0976
AAGCACCG | -0.194
ACCACGTA | 0.0886
ACGGCCAC | -0.32
ACACTCGA | -0.0861
AAAATCGT | 0.0993
GCCATGTA | 0.0684
AATGCACG | -0.0574
ATTCAACA | 0.113
GGCCGGAC | -0.234
CAGGCTGA | -0.0825
AGTTGTCG | 0.154
CAACGTCG | -0.0086
CAGATTTA | 0.148

Sequence | binding signal [E-score]
CGCGACAG | -0.119
ACACTCGG | 0.0662
ATAAGACG | -0.00614
CCAGATTC | 0.0227
CGACTGTA | 0.0686
CATTTGGA | -0.0727
GCTTTCAC | -0.0304
AGTGTTCC | -0.0573
AAAGAGCG | -0.142
ACAACCTG | -0.0489
ACTTCGTG | -0.124
GACCGTGA | -0.197
CGCGTGAG | -0.155
TTACAAAA | -0.0374
TAGCTTCA | 0.143
GACATTAA | 0.0648
CGGCGCCG | -0.317
CAAAGACG | -0.134
ATCTTGAC | -0.167
AACCCCCG | -0.25
ATAGCCGC | -0.0394
AGAACGTA | 0.0866
AACAATGA | 0.0026
AGGTTATA | 0.0285
ATCACAAA | 0.216

Sequence | binding signal [E-score]
GAGGGAGC | -0.336
ACTCCGGA | -0.0255
ACGGACGT | -0.0675
CGGTGACG | -0.113
AGGTCGGC | -0.279
GTATTAAA | 0.158
AGTTCGCC | 0.000411
CCAGTGCC | -0.17
AGTAACAG | 0.186
CTGCAGTA | 0.0959
AGACTTGA | -0.281
CCGTGTAA | 0.0352
CGAAGTTC | 0.0766
CGTGAAAC | -0.149
GGAGAGGA | -0.171
CAAGCCGG | -0.0919
ACCGACGT | -0.119
ACGCCCGG | -0.295
AAAACGTA | 0.139
GGGATCCC | -0.33
CACAACCC | -0.14
CAGGATTC | -0.00781
AAATTCCT | 0.0295
CATTCCAC | -0.157
AGTTTGCC | 0.113

Sequence | binding signal [E-score]
AACGAGTA | 0.0553
ACGTGTAT | 0.181
ATAGCCAT | -0.193
ACAGTCAA | -0.00757
AGGGCGCG | -0.314
AGAGGGTG | -0.298
ACATAAAC | 0.146
ACCGGCTC | -0.289
CGTATCAC | 0.0328
GATCCACC | -0.0485
AATGCTGA | 0.0552
CTCTTAGC | -0.00517
CATATTAA | 0.194
AGTACACG | 0.055
CTTAGGCA | -0.0879
CTCAGCAA | 0.126
AAACGGAA | 0.0521
CATTTGTC | 0.0421
GACCCCCA | -0.24
ATGCATGG | -0.0816
TATTTGGA | -0.063
AGATCCTA | 0.2
GAGCCCGA | -0.211
ACGGGGAG | -0.228
GCATAGGA | 0.0839

Sequence | binding signal [E-score]
GGGACTGA | -0.159
AAACGACT | -0.00744
GGACCCCC | -0.381
AGTATGCG | 0.178
CACAGATC | -0.114
TAGCAGGA | -0.0409
GACGTTAA | -0.0315
TCGGTTAA | 0.145
CTATACCA | 0.201
AAATGTCA | 0.174
CAGAGAGA | -0.071
GGAGCGTA | -0.111
CGGAGATC | -0.121
CAGTGTCA | -0.0837
CCCGTTCG | -0.103
AACTAGGG | -0.0014
CGACTTGC | -0.000418
GGGTTCTA | -0.209
GTTTGTTA | 0.13
CTTTTTGA | -0.169
CTGGTAAA | 0.213
GATGACCC | -0.1
ACTAGCCG | 0.0929
AACCCGAA | -0.025
CATCGTTC | -0.12

Sequence | binding signal [E-score]
ACGGTTAG | 0.0379
GCAAGGCA | -0.144
AGACCGAT | 0.00269
AACAGAGA | -0.109
GTAAGGAC | 0.00285
AGCCGGCC | -0.197
CACGACGC | -0.112
CTGACTGC | -0.111
ACTGCGCT | -0.118
CGGCGTGA | -0.241
GGTTAGAA | 0.0886
AGAACCTG | -0.0905
AGCACCGA | -0.119
CAAGCTAA | -0.0479
CTAATTCC | 0.159
GTCGGAGA | -0.381
CCTGGTGC | -0.137
ACGCAAGA | 0.0168
CAGCGAAC | -0.14
